Laboratory results from PubChem BioAssay AID504845 (National Center for Advancing Translational Sciences (NCATS), 2011).
Several values for one entry are separate records, joined by “and”; a condition that tells them apart may be missing. Equal entries are not always repeated. Among all 390,000 compounds or so, about 150 (0.038%) were called active. The inconclusive results got no clear call from the source; some entries with a clear call stand among them for comparison. Calls follow the shape of the dose curve; as a rule, active = well fitted inhibition curve with a large enough effect; inconclusive = small, poorly fitted or top-dose-only effect; inactive = no such curve, though single readings can be large or run the other way. Where the call is inconclusive, the potency comes from a doubtful curve fit. Where a structure was tested more than once in an assay, its records may differ in their call.

Target: Regulator of G-protein signaling 4 (Homo sapiens) (UniProt P49798)
Assay: Inhibitors of Regulator of G Protein Signaling (RGS) 4: qHTS; also: nearly all actives have a fitted effect of over 75% in size
Conditions: Transcreener GDP fluorescence polarization, RGS4-accelerated GTP hydrolysis; series mostly up to 114 µM; activity change, negative = inhibition: at the top concentration
In short: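 MLSMR compounds (23 nl, pin-transferred) preincubated 10 min at room temperature with a 500nM (2x) first reagent, then RGS4 at 900nM (2x) plus Transcreener GDP mix added; fluorescence polarization (620/688 nm) read before and after 90 min at 30 °C.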
% is scaled to controls: 0 for no effect and ±100 for the full control effect; potency is read from the fitted curve at half-maximal effect; tags tell the direction and shape of the fitted curve.

Chain of UniProt P49798 (P49798 whole entry, looked up): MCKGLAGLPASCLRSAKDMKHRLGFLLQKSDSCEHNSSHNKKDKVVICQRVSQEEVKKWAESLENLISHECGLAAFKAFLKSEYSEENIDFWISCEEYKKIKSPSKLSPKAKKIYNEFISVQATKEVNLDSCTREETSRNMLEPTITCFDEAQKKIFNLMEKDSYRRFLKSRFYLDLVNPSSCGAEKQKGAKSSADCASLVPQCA

SMILES	activity change, negative = inhibition	Potency
CN(C)CCCn1c(N)c(S(=O)(=O)c2ccccc2)c2nc3ccccc3nc21	inactive: -5.97%	
Cc1ccc(OCc2nnc(SCC(=O)c3cccc([N+](=O)[O-])c3)n2C)cc1		inconclusive: 17.8 µM [inhibitor, full curve, poor fit]
O=c1[nH]cnc2nc3n(c12)CCCCC3		inconclusive: 79.4 µM [inhibitor, single point]
S=C(Nc1ccccc1)Nc1nccs1		inactive and active: 10.6 µM
C=C(C)CNC(=S)N/N=C1\CCCCc2ccccc21	inactive: 0.571%	
FC(F)(F)c1ccccc1NC(=S)Nc1cccc2cnccc12		inconclusive: 89.1 µM [inhibitor, partial curve, poor fit]
Cc1[nH]n(-c2ccccc2)c(=O)c1/C=N/N1C(=O)c2cccc3cccc(c23)C1=O		inconclusive: 89.1 µM [inhibitor, single point]
CCN(CC)C(=O)COc1ccc2oc(-c3ccco3)cc(=O)c2c1		inconclusive: 89.1 µM [inhibitor, single point]
Cc1ccc(S(=O)(=O)CNC(=S)c2ccc3ccccc3c2)cc1	inactive: -3.07%	
CNS(=O)(=O)c1ccc(N2CCCC2)c([N+](=O)[O-])c1	inactive: -2.06%	
Oc1ccccc1/C=N/Nc1nc2ccccc2o1	inactive: -14.9%	
Cc1cnc(C(=O)OCC(=O)NCc2ccccc2)cn1	inactive: -4.06%	
N#CC1=C2SCN(c3ccc(F)cc3)CN2C(=O)CC1c1cccc(F)c1 (centres undefined)		inconclusive: 20 µM [inhibitor, full curve, poor fit]
CCc1cccc(NC(=O)Cn2c(-c3ccccc3)cc(C(C)=O)c2C)c1		inconclusive: 89.1 µM [inhibitor, single point]
Cc1cccc(NC(=O)c2c(NC(=O)c3ccccc3)sc3c2CCCC3)c1		inconclusive: 56.2 µM [inhibitor, partial curve, poor fit]
S=C(Nc1cccnc1)Nc1cccc2cnccc12		inconclusive: 17.8 µM [inhibitor, full curve, poor fit]
O=C(Nc1ccc(-c2cc3ccccc3oc2=O)c(Cl)c1)c1cccnc1		inconclusive: 100 µM [inhibitor, partial curve, poor fit]
CC(C)c1ccc(/C=C/c2[nH]c(=O)[nH]c(=O)c2[N+](=O)[O-])cc1		inconclusive: 44.7 µM [inhibitor, partial curve, poor fit]
COc1ccc2[nH]c3c(c2c1)CCN1C(=O)C(CC(=O)NCCc2ccccn2)C[C@H](C(=O)N2CCOCC2)[C@@]31CCC1CCCC1 (some centres undefined)		inconclusive: 79.4 µM [inhibitor, partial curve, poor fit]
COCCNCc1cc(C)n(-c2cc(S(=O)(=O)N3CCOCC3)ccc2N2CCCC2)c1C		inconclusive: 79.4 µM [inhibitor, partial curve, poor fit]
COc1ccc2c(c1OC)C(=O)N1c3ccccc3N=C(c3ccc([N+](=O)[O-])cc3)CC21 (centres undefined)		inconclusive: 50.1 µM [inhibitor, partial curve, poor fit]
CCOC(=O)c1c(-c2ccc(C)o2)csc1NC(=O)COC(=O)c1ccc(NC(N)=O)cc1		inconclusive: 79.4 µM [inhibitor, partial curve, poor fit]
Cc1nc(-c2cccc(S(=O)(=O)N3CCC(C)CC3)c2)cs1		inconclusive: 89.1 µM [inhibitor, partial curve, poor fit]

SMILES	activity change, negative = inhibition	Potency
CC1C(C#N)=C(SCC(N)=O)NC2=C1C(=O)CC(C)(C)C2 (centres undefined)		inconclusive: 28.2 µM [inhibitor, full curve, poor fit]
COCCn1c(C)cc(C(=O)CSc2n[nH]c(N)n2)c1C	inactive: 8.62%	
C=C1C(=O)O[C@@H]2[C@H]3O[C@]3(C)CC/C=C(\C)CC[C@@H]12		inactive and inconclusive: 37.7 µM [inhibitor, partial curve, poor fit]
COc1cc(-c2n[nH]c(=S)n2-c2cc(C(F)(F)F)ccc2Cl)cc(OC)c1OC	inactive: -40.2%	
COc1ccccc1NC(=O)c1coc(=O)c(Br)c1		inconclusive: 35.5 µM [inhibitor, full curve, poor fit]
CSc1ccc(C(=O)c2[nH]c(=O)[nH]c2C)cc1		inconclusive: 29.9 µM [inhibitor, partial curve, poor fit]
COc1ccc(CNc2nccs2)cc1OC	inactive: 8.41%	
CCCC(=O)Nc1cccc(NC(=O)c2cccc([N+](=O)[O-])c2C)c1	inactive: 10.6%	
Cc1cc(/C=C2\Sc3ccccc3N2C)cc(C)[n+]1CC1CCCO1 (centres undefined)		inconclusive: 20 µM [inhibitor, full curve, poor fit]
COc1ccc2[nH]c3c(c2c1)CCN1C(=O)C(CC(=O)NCc2ccco2)C[C@H](C(=O)N2CCCCC2)[C@@]31C (some centres undefined)	inactive: -11.4%	
CCCC(=O)Nc1sc(C(=O)OC)c(C)c1C(N)=O	inactive: -34.1%	
COc1cc(/C=C/c2ccc3cccc(O)c3n2)cc(Br)c1OC	inactive: 7.66%	
C=CCNC(=O)/C(=C/c1ccc(Br)cc1)NC(=O)c1ccccc1OC		inconclusive: 79.4 µM [inhibitor, single point]
Cc1cc(N2CCN(C)CC2)nc2ccc(NC(=O)c3ccc4c(c3)OCO4)cc12		inconclusive: 56.2 µM [inhibitor, partial curve, poor fit]
CCOC(=O)C1=C(O)/C(=C/c2cc(C)n(-c3ccccc3)c2C)N=C1C		inconclusive: 44.7 µM [inhibitor, partial curve, poor fit]
CC(C(=O)O)n1cc(C#N)c(=O)[nH]c1=O (centres undefined)	inactive: 3.57%	
CN1CCc2nc3sc(C(=O)Nc4cccc(C#N)c4)c(N)c3cc2C1		inconclusive: 17.8 µM [inhibitor, partial curve, poor fit]
Cc1cc(OCc2cccc(Cl)c2)c(C)cc1CN1CCOCC1	inactive: -14.9%	
O=C(NCc1ccco1)C(c1ccncc1)N(C(=O)Cc1cccs1)c1ccccc1 (centres undefined)	inactive: -16.3%	
OC(COCc1ccc(Cl)cc1)CN1CCN(c2ccccn2)CC1 (centres undefined)	inactive: -26.3%	
O=S1(=O)C=C(SCCN2CCCCC2)c2ccccc21	inactive: -0.786%	
COc1ccc(NC(=O)Cn2cc(C(=O)c3ccco3)c3ccccc32)cc1		inconclusive: 89.1 µM [inhibitor, single point]
Cc1c(NC(=O)CSc2n[nH]c(=O)n2-c2ccccc2)c(=O)n(-c2ccccc2)n1C		inconclusive: 31.6 µM [inhibitor, full curve, poor fit]

SMILES	activity change, negative = inhibition	Potency
Cc1c(N(C)C)nc2ccccc2c1N		inconclusive: 89.1 µM [inhibitor, single point]
O=C(OC(C(=O)Nc1ccc(Cl)cc1C(F)(F)F)c1ccccc1)c1c(Cl)cccc1Cl (centres undefined)		inconclusive: 35.5 µM [inhibitor, partial curve, poor fit]
O=C(O)C1CSC(c2coc3ccccc3c2=O)N1 (centres undefined)		inconclusive: 31.6 µM [inhibitor, full curve, poor fit]
COc1ccc(S(=O)(=O)Nc2ccc(OCC(=O)O)cc2)c2ccccc12	inactive: -18.2%	
CN1CCN(C(=O)c2cc3nc(-c4ccc(F)cc4)cc(C(F)(F)F)n3n2)CC1	inactive: 12.4%	
Cc1nnc(SCC(=O)NCc2ccco2)n1Cc1ccccc1	inactive: -17.1%	
CC(=O)OCC1=C(C(=O)OC(C)(C)C)N2C(=O)[C@@H](NC(=O)Cc3ccccc3)[C@H]2SC1		inconclusive: 50.1 µM [inhibitor, partial curve, poor fit]
O=C(c1ccccc1)c1cc(Cl)ccc1N1C(=O)C=CC1=O		inconclusive: 44.7 µM [inhibitor, partial curve, poor fit]
CCOC(=O)CNC(=O)C1CCCCC1	inactive: -36.7%	
CC(O)[C@H]1CC[C@H]2[C@@H]3CC[C@H]4C[C@H](O)CC[C@]4(C)[C@H]3[C@H](O)C[C@]12C (some centres undefined)		inconclusive: 70.8 µM [inhibitor, single point]
COc1ccc(N2CSC3=C(C#N)C(c4cc(OC)ccc4OC)CC(=O)N3C2)c(OC)c1 (centres undefined)		inconclusive: 17.8 µM [inhibitor, full curve, poor fit]
CN(C)CCCNc1oc(-c2cccc(Cl)c2)nc1C#N	inactive: 6.2%	
NC(=O)C1CCN(C(=O)CN2CCc3ccccc32)CC1		inconclusive: 70.8 µM [inhibitor, single point]
CCCCCC1(C)NC(=S)N(c2ccccc2)N1 (centres undefined)		inconclusive: 79.4 µM [inhibitor, partial curve, poor fit]
COC(=O)c1[nH]c2cc(OC)ccc2c1NC(=O)CCN1CCN(Cc2ccc3c(c2)OCO3)CC1	inactive: -15.4%	
COc1ccc(CC(=O)N/N=C(\C)c2cccc(NC(=O)C3CC3)c2)cc1	inactive: 18.7%	
Cc1cc(-c2nnc3n2CCCCC3)c(C)n1-c1ccccc1	inactive: -15%	
CCOc1ccc(-n2c(-c3ccccc3)c(C)n3c4c(=O)n(C)c(=O)n(C)c4nc23)cc1		inconclusive: 89.1 µM [inhibitor, single point]
O=C(Nc1ccc(O)cc1)/C(=C\c1ccncc1)NC(=O)c1ccccc1		inconclusive: 79.4 µM [inhibitor, partial curve, poor fit]
CCn1cc(C(=O)NCc2ccc(C)cc2)c(=O)c2cc(S(=O)(=O)N3CCCCCC3)ccc21		inconclusive: 89.1 µM [inhibitor, single point]
COc1ccc(C(NC(=O)/C=C/c2ccco2)c2ccc(OC)c(OC)c2)cc1 (centres undefined)	inactive: -0.234%	
Cc1cccc(NC(=O)C2CCCN(C(=O)Nc3ccccc3)C2)c1C (centres undefined)	inactive: 4.19%	
O=C(CSc1cccc[n+]1[O-])c1ccc(-c2ccccc2)cc1		inconclusive: 89.1 µM [inhibitor, partial curve, poor fit]
